Experimental findings from publication PMC4336329 (PLoS ONE, 2015) are described below.

Among all 310,000 compounds or so, about 2,200 (0.71%) showed an effect of 50% or more. Effects have a minus sign here. This is one part of the list.

Sequence of human ether-à-go-go-related gene (hERG) potassium channel (Q12809 whole entry, looked up): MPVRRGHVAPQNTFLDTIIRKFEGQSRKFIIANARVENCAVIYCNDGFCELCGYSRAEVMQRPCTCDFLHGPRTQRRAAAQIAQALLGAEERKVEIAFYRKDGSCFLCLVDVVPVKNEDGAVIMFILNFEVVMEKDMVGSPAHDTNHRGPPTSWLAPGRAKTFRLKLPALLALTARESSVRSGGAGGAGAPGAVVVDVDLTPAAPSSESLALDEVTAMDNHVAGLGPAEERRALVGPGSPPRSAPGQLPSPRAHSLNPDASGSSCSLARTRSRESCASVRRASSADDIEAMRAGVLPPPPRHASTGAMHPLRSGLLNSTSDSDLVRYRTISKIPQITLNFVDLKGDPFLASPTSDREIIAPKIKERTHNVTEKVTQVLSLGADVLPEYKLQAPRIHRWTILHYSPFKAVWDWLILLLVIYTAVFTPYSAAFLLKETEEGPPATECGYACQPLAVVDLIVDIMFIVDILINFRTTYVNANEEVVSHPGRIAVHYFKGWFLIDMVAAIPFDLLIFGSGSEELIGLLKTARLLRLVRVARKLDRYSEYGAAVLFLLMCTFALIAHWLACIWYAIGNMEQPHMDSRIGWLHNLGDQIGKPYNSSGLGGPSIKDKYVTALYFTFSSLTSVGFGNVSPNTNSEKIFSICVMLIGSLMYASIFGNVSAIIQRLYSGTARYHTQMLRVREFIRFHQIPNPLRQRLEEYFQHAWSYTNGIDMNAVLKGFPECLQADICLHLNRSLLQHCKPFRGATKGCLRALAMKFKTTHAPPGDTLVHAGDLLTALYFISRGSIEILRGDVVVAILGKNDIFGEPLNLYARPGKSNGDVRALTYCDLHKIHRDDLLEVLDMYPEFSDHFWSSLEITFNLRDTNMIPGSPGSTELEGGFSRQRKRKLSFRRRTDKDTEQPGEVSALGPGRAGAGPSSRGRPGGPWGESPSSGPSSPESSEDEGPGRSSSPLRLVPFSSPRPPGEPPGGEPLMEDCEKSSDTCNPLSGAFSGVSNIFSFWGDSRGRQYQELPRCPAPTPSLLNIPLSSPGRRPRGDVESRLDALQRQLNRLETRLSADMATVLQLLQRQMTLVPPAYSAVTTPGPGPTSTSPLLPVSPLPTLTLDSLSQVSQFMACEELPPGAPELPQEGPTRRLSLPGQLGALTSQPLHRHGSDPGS

The assay has as its target human ether-à-go-go-related gene (hERG) potassium channel (human, UniProt Q12809). Kind of assay: primary screen, population patch clamp on CHO cells stably expressing hERG.
As to `CCC(C)(c1nnnn1-c1c(C)cccc1C)N(N=O)c1ccccc1Cl` (centres unmarked), the “hERG current change (%, negative = inhibition) at 1uM” value was 6.35%.

With `CC(=O)c1c(C)[nH]c(C(=O)N2CCCC(C)C2)c1C` (centres unmarked), the “hERG current change (%, negative = inhibition) at 1uM” value is 12%.

Regarding `O=C(CCc1nc2ccccc2c(=O)[nH]1)Nc1nnc(SCc2ccc(F)cc2)s1`, the “hERG current change (%, negative = inhibition) at 1uM” value is on record as 12.3%.

In the case of `Cc1cccc(-c2nsc(SCC(=O)N3CCCC3)n2)c1`, the “hERG current change (%, negative = inhibition) at 1uM” value was determined as 9.55%.

In the case of `CC(C)c1cccc(C(C)C)c1NC(=O)CNCc1ccccc1F.O=C(O)C(=O)O`, the “hERG current change (%, negative = inhibition) at 1uM” value is listed as -9.14%.

Regarding `O=C(NCc1ccc(F)cc1)c1cc2ccccc2o1`, the “hERG current change (%, negative = inhibition) at 1uM” value stood at 18.1%.

As to `CSc1ccc(Cl)c(C(=O)N(C)CC(=O)Nc2ccc(N3CCOCC3)cc2)c1`, the “hERG current change (%, negative = inhibition) at 1uM” value is 12.6%.

For `CC(CNC1CCCCC1)OC(=O)c1ccccc1.Cl` (centres unmarked), the “hERG current change (%, negative = inhibition) at 1uM” value is -3.23%.

Consider `O=C(NC(Cc1c[nH]c2ccccc12)C(=O)N/N=C/c1cccnc1)c1cccs1` (centres unmarked), for which the “hERG current change (%, negative = inhibition) at 1uM” value is on record as -0.0775%.

`CC(OC(=O)CNS(=O)(=O)c1ccc(C#N)cc1)C(=O)Nc1cccc(C#N)c1` (centres unmarked): the “hERG current change (%, negative = inhibition) at 1uM” value is reported as -2.9%.

As to `Cc1ccc(C(=O)N2CCCC(Nc3ccc(F)cc3)C2)cc1C` (centres unmarked), the “hERG current change (%, negative = inhibition) at 1uM” value is -0.167%.

In the case of `COc1cccc(CN(C)CC(=O)Nc2cc3oc4ccccc4c3cc2OC)c1`, the “hERG current change (%, negative = inhibition) at 1uM” value is given as 1.23%.

`NNC(=O)c1csc(-c2ccc(C(F)(F)F)cc2Cl)n1`: the “hERG current change (%, negative = inhibition) at 1uM” value is listed as 9.45%.

Consider `Nn1c(SCC(=O)Nc2ccc(F)cc2F)nnc1-c1cccnc1`, for which the “hERG current change (%, negative = inhibition) at 1uM” value turned out to be 20.7%.

For `O=C(c1ccco1)N1CCN(C(=O)c2cc(Cl)nc3ccccc23)CC1`, the “hERG current change (%, negative = inhibition) at 1uM” value was -8.33%.

Regarding `COc1ccc(CSCC(=O)N/N=C/c2ccccc2O)cc1`, the “hERG current change (%, negative = inhibition) at 1uM” value worked out at 7.14%.

For the molecule `CC(C)Cn1c(SCC(=O)NCc2ccc(Cl)cc2)nnc1-c1cccc(S(=O)(=O)N2CCOCC2)c1`, the “hERG current change (%, negative = inhibition) at 1uM” value is on record as -12.9%.

For `Oc1ccc2ccccc2c1CNc1ccc(Br)cn1`, the “hERG current change (%, negative = inhibition) at 1uM” value was found to be 12.7%.

On to `O=C(Nc1cnn(Cc2ccc(F)cc2)c1)c1cnccn1`, for which the “hERG current change (%, negative = inhibition) at 1uM” value was found to be 8.36%.

On to `COc1ccc(OC)c(NC(=S)Nc2ccccc2)c1`, for which the “hERG current change (%, negative = inhibition) at 1uM” value stood at 14.1%.

Take `O=C(COc1cccc(Oc2ccccc2)c1)Nc1ccc(SC(F)F)cc1`: the “hERG current change (%, negative = inhibition) at 1uM” value is listed as 11.7%.

Take `COc1ccccc1NC(=O)c1cc2c(CO)cnc(C)c2oc1=Nc1cccc(C(N)=O)c1`: the “hERG current change (%, negative = inhibition) at 1uM” value is recorded as 22.4%.

Regarding `CCN(CC(=O)Nc1cccc(S(=O)(=O)N(C)c2ccccc2)c1)Cc1ccccc1`, the “hERG current change (%, negative = inhibition) at 1uM” value is 4%.

For `CCCCN1C(=O)Nc2ccccc2S1(=O)=O`, the “hERG current change (%, negative = inhibition) at 1uM” value is -11.6%.

With `Cc1ccc(-n2c(C)cc(/C=N/NC(=O)c3ccncc3)c2C)cc1C`, the “hERG current change (%, negative = inhibition) at 1uM” value was determined as 8.17%.

For the molecule `CN(C)c1ccc(NC(=O)c2ccc(Cn3cc([N+](=O)[O-])cn3)cc2)cc1`, the “hERG current change (%, negative = inhibition) at 1uM” value was found to be 5.16%.

`CCOC(=O)N1CCN(Cc2nc3cc(NC(C)=O)ccc3n2CC)CC1`: the “hERG current change (%, negative = inhibition) at 1uM” value turned out to be 13.4%.

Regarding `O=C(NCc1nnc(SCC(=O)N2CCOCC2)o1)c1cccs1`, the “hERG current change (%, negative = inhibition) at 1uM” value is given as 7.46%.

As to `Cc1ccc(-c2nc(CS(=O)CC(=O)NCc3ccc4c(c3)OCO4)c(C)o2)cc1` (centres unmarked), the “hERG current change (%, negative = inhibition) at 1uM” value worked out at 1.76%.

Take `Cc1cc(Cl)cc(C)c1OCC(=O)O`: the “hERG current change (%, negative = inhibition) at 1uM” value stood at 13.7%.

In the case of `COc1ccccc1C(=O)N/N=C(\C)c1ccc(NC(=O)C2CC2)cc1`, the “hERG current change (%, negative = inhibition) at 1uM” value is given as 5.66%.

On to `O=C(Nc1nnc(C2CC2)s1)c1cccnc1Oc1ccc(Cl)cc1`, for which the “hERG current change (%, negative = inhibition) at 1uM” value was found to be 13.6%.

As for `Nc1c(NC(=O)CC[n+]2ccccc2)cccc1[N+](=O)[O-].[Cl-]`, the “hERG current change (%, negative = inhibition) at 1uM” value was -3.55%.

`CCCCOc1ccc(-c2cnc3ccccc3n2)cc1`: the “hERG current change (%, negative = inhibition) at 1uM” value was 18%.

Consider `Fc1ccc(CN2CCSCC2)cc1Br`, for which the “hERG current change (%, negative = inhibition) at 1uM” value is recorded as 0.438%.

With `CCOCCCNC(=S)N1CCN(CC)CC1.O=C(O)C(=O)O`, the “hERG current change (%, negative = inhibition) at 1uM” value came to 18.1%.

Turning to `CCOCCOc1cccc(C(=O)NC(c2ccccc2)C(C)C)c1` (centres unmarked), the “hERG current change (%, negative = inhibition) at 1uM” value is recorded as -1.14%.

Consider `Cc1cc(OC(C)C(=O)N2CCN(c3ccc(F)cc3)CC2)c2c(C)c(C)c(=O)oc2c1` (centres unmarked), for which the “hERG current change (%, negative = inhibition) at 1uM” value is -8.37%.

With `COc1ccccc1C(=O)OCC(=O)Nc1cc(S(=O)(=O)N2CCOCC2)ccc1N1CCCC1`, the “hERG current change (%, negative = inhibition) at 1uM” value is recorded as 12%.

Regarding `CCN(CC(=O)Nc1ccccc1OC)CC(=O)Nc1ccccc1C(F)(F)F`, the “hERG current change (%, negative = inhibition) at 1uM” value was determined as 4.99%.

As to `O=C1C(=O)N(CCS(=O)(=O)c2ccccc2)c2ccc(F)cc21`, the “hERG current change (%, negative = inhibition) at 1uM” value is 6.93%.

Regarding `Cc1ccc(S(=O)(=O)NCCC(c2ccccc2)c2ccco2)cc1` (centres unmarked), the “hERG current change (%, negative = inhibition) at 1uM” value was 13.3%.

For the molecule `Cc1cccc(N2CCN(C(=O)/C=C/c3cccs3)CC2C)c1` (centres unmarked), the “hERG current change (%, negative = inhibition) at 1uM” value is on record as 2.11%.

On to `O=C(O)C(=O)O.c1ccc(COc2cccc(CN3CCCCC3)c2)cc1`, for which the “hERG current change (%, negative = inhibition) at 1uM” value turned out to be 8.85%.
